Assay results as given in the RNAGym collection of RNA variant scans (doi:10.7554/elife.90254).
Read counts are not given, so values of variants with three or more changes are uncertain.

B1: LINE1-mini (parent)
chain: GGCAGAGCUCAACACAGCGUGGCAAAGUGGCUGUGGCUAGACUGCC

Variants of: B1
Assay: self-cleavage, relative activity (ratio to wild type); higher = more cleavage; in vitro, sequencing; the parent is a self-cleaving ribozyme

Row | Variant | self-cleavage
1 | G2U G7U C18G C23A U38C | 0.01
2 | C3A C18G G19A A24U G29C | 0.14
3 | C3A G5U G40U | 0.15
4 | C3A G7C A11C G17U U34C | 0.04
5 | G2U G17U G29C G36C G44A | 0.01
6 | C3A A4C C31U | 0.02
7 | G2U G21U U32A | 0
8 | C3A A16C G36U | 0.14
9 | C3A G21C U28C U34A | 0.12
10 | C3A A6U G21C | 0.46
11 | C3A A11U G19U G35U | 0.01
12 | G2U U9A C18A | 0.1
13 | C3A C10G C23G | 0.02
14 | C3A A16U G29C | 0.21
15 | G2U G35U C37G | 0.06
16 | G2U U9A A41C | 0.04
17 | G2U G7C A12G C13G | 0.07
18 | C3A A4G A11U G29C U32G G36U C37U C42A | 0
19 | G2U U9C C13A G36A C42U | 0.02
20 | C3A C8A U38C | 0.31
21 | C3A C13A G19U A26G C46A | 0.07
22 | C3A G5A C10G C15A C46A | 0.05
23 | G2U G7U A26C | 0.02
24 | C3A G17A G27U U34C | 0.06

Row | Variant | self-cleavage
25 | G2U U20G G21C U32G A39C | 0
26 | C3A G5U C10A U38C | 0.05
27 | G2U G7U A11G G36C | 0
28 | C3A G19C G36U C45U | 0.34
29 | C3A A6U U28G G29C G36A A39U | 0.02
30 | C3A G7A G30U C46U | 0.8
31 | G2U G44A C45G | 0.03
32 | G2U U28G A41U | 0.03
33 | C3A G22U C31U | 0.12
34 | C3A G5C G7U C23A | 0.08
35 | C3A C15A A24U U32A C37G | 0.09
36 | C3A C8A G30A U38C | 0.91
37 | C3A C8A C15A U34C C42U G44C | 0.23
38 | G2U G7A C18U U28A G29C | 0.03
39 | C3A C18G G40A | 0.18
40 | C3A G5U A14U G27U U38A C46A | 0.48
41 | G2U G27A G33U C42A | 0
42 | C3A G5A G7U A12C A25U A26U G33C G36C | 0.14
43 | C3A A4U U9G C15U C42U C46U | 0.07
44 | C3A A4U G5A C8G A12U G22A G29C C37U | 0.01
45 | C3A G5U A11C G27C C31U | 0
46 | C3A C23U G44A C45U | 0.63
47 | G2U G27U G29C G35U | 0.02
48 | C3A C13U G21U | 2.61

Row | Variant | self-cleavage
49 | C3A C8A G17U G21U | 0.32
50 | C3A A12U C42G | 0.03
51 | C3A G21A G36A | 2.91
52 | C3A G19A A41C U43C | 0.06
53 | G2U U32C U38A U43C | 0.02
54 | G2U G7C C10U C13A G21C | 0.01
55 | C3A A11C G21U C42G | 0.02
56 | C3A G17C G22C C42U G44C C45A | 0.1
57 | G2U G27U G36U | 0.04
58 | G2U U20C G30A | 0.11
59 | G2U U9G A26G | 0.02
60 | G2U U20A U32C G36U | 0.02
61 | C3A G5U C18U C23U | 0.4
62 | C3A A6G U9C C18U C23A U34A | 0.01
63 | G2U U9A U28A | 0.02
64 | G2U U43A C46A | 0.14
65 | C3A G22C G36C G44C | 0.03
66 | C3A G5U A26G U32A G40U | 0.07
67 | C3A C10A A12U G17C C18U A26C G30U | 0.03
68 | C3A A24U G27C | 0.12
69 | C3A A12C G36U U38A C42U G44U | 0.01
70 | C3A A12C G30U C45A | 0.04
71 | C3A G19U C42U | 0.02
72 | C3A G19U C42G | 0.02

Row | Variant | self-cleavage
73 | G2U G7A U9C | 0.04
74 | G2U U9G A24U G29U | 0.03
75 | G2U G21A G29C | 0.02
76 | C3A C15A G22A C46G | 0.16
77 | G2U G7U A25G G33A | 0.07
78 | C3A A6G C10U | 0.04
79 | G2U U9G C23U | 0.05
80 | C3A G7U U38A | 0.06
81 | C3A G22C C23U A25C | 0.16
82 | C3A G7A A41C | 0.27
83 | C3A A6G G7C C42U | 0.09
84 | G2U U9C A26C G29U | 0.01
85 | G2U G5U C13U | 0.05
86 | C3A A25C U28A U34A | 0.12
87 | C3A A16U A25U | 0.09
88 | C3A A41C G44U | 0.05
89 | C3A A11U C13G G21A U34C | 0.03
90 | C3A C8U A11U A12U C15G A16C G36U | 0.04
91 | G2U G17U G30U C45U C46G | 0.04
92 | G2U G5U G29C | 0.02
93 | C3A G7A G30C | 0.44
94 | C3A C15U A24U U32A | 0.08
95 | G2U G7U G19U A26C C31U | 0.02
96 | G2U G5U G19A G27U | 0.03

Row | Variant | self-cleavage
97 | C3A A26C G33C C42G | 0.07
98 | C3A A16C C31G A41C C42U C45A | 0.04
99 | C3A C18A G27C U43G | 0.06
100 | C3A G19U A24U G30A U43C | 0.07
101 | C3A C18G C31A | 0.06
102 | G2U G5C G36A G44A C46A | 0
103 | C3A G19U A24C C31A U43A | 0.04
104 | G2U G5A C13A | 0.11
105 | C3A C42A U43C | 1.05
106 | C3A A11U A14G G29A U43A | 0.01
107 | C3A A14C G19A G27C U32A C46G | 0.04
108 | C3A C18A G22C A39G C46U | 0.07
109 | C3A G7C C18U C46A | 0.04
110 | G2U G22C A39U | 0.09
111 | C3A A25C C37A A41G | 0.05
112 | C3A G7A A25G G33A | 0.12
113 | G2U G5A C37A G40C | 0.02
114 | C3A A16C G29U | 0.14
115 | C3A G19A G21A C23U U43C | 0.44
116 | C3A C18A G27A | 0.25
117 | C3A A4U G27A A39C | 1.35
118 | C3A G7C C18G C42U U43G | 0.09
119 | C3A G17A G40A | 0.18
120 | G2U G5C G30C G40U | 0.03

Row | Variant | self-cleavage
121 | C3A G7U A25G G27A C31U G35A G40U A41U | 0.04
122 | G2U G33U G36U | 0.04
123 | C3A C18U A24G | 0.09
124 | C3A C18U A24C | 0.07
125 | C3A A11U G19C G21U G30U A39C | 0.01
126 | C3A G17A C46A | 0.14
127 | C3A C15G C18U C31A | 0.1
128 | C3A C18G G21U | 0.18
129 | C3A G5U A14U U20C A41U | 0.22
130 | C3A A6U G7U A24U | 0.8
131 | C3A A14C C15U A16U C18G | 0.3
132 | G2U G5C A6G A26U U38G C42A U43G | 0
133 | C3A A14C G19C C45A | 0.05
134 | G2U G29U G40C | 0.06
135 | C3A A25C G30A U38G U43A | 0.51
136 | C3A A4C G35U | 0.13
137 | C3A A12G A16C A39U | 0.01
138 | C3A G7U G36C C45G | 0.07
139 | C3A G5A U9G G17A | 0.37
140 | G2U U32C G40U | 0.16
141 | G2U G5U C37A | 0.06
142 | C3A A6U U28C | 0.15
143 | C3A A16G G36A | 0.21
144 | C3A G21A C23U U34A C42G G44A | 0.2

Row | Variant | self-cleavage
145 | C3A G22C G27C U32G C37U | 0.27
146 | C3A G19A G35A | 0.16
147 | G2U G35C A39C | 0.07
148 | C3A C8A A11C C13G G30C | 0.03
149 | C3A C8A C45A | 1.41
150 | C3A A6U C10G A12C C31A U34G A39C U43C | 0
151 | G2U U28G C42U | 0.01
152 | C3A A24C G29U C46A | 0.15
153 | G2U G5U C15A U20C | 0.03
154 | C3A G17U G30U G40U | 0.15
155 | G2U G35C G40A | 0.01
156 | C3A A12G A24C A26C U32G | 0.23
157 | C3A G27C U38A | 0.17
158 | C3A A16U G29U G40U | 0.04
159 | C3A G21A G22A A26C C46A | 0.57
160 | G2U U20A G40C | 0
161 | C3A C18U G30C G33U | 0.11
162 | C3A A11C G22C C42G | 0.03
163 | C3A G27U G29U | 0.25
164 | C3A G29U U38A | 0.26
165 | C3A A11U C18G G21C C23A A41U | 0.02
166 | G2U G5C C46U | 0.02
167 | C3A A12C G17C A25U | 0.06
